Laboratory results taken from PubChem BioAssay AID1347073 (National Center for Advancing Translational Sciences (NCATS), 2019).
Out of some 45,000 compounds screened, about 200 (0.44%) were called active. About 7% were inconclusive and are not listed. The call rests on the fitted dose curve; in most records, active means well fitted activation curve with a large enough effect; inconclusive means small, poorly fitted or top-dose-only effect; inactive means no such curve, though single readings can be large or run the other way. The list shows a part of the results.

Assay: qHTS of TDP-43 Inhibitors: NCGC Sytravon Library Screen; further: 0% is about no effect; nearly all actives have a fitted effect of over 55% in size
Conditions: yeast TDP-43 toxicity rescue, BacTiter-Glo growth, 24 h; series mostly up to 46.1 µM; growth rescue (activation): at the top concentration
In short: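 TDP-43-expressing yeast, pregrown in raffinose, seeded at OD600 0.02 in galactose medium with compound for 24 hr at 30 deg C. Growth read by BacTiter-Glo luminescence, so rescue of toxicity appears as activation.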

Structure (SMILES)	growth rescue (activation)
COc1ccc(OC)c(-n2c(-c3ccn[nH]3)n[nH]c2=S)c1	inactive: 1.3%
O=C(O)[C@@H]1CC(O)CN1C(=O)CCc1c[nH]c2ccccc12 (some centres undefined)	inactive: 0.557%
COC(=O)c1ccc(OCC(O)CNCC(c2ccc(OC)cc2)N(C)C)c(OC)c1 (centres undefined)	inactive: 4.55%
CC1=NN(c2nc(-c3ccc(C)cc3)cs2)C(=O)C1N=Nc1ccc2ccccc2c1 (centres undefined)	inactive: -6.25%
O=C(NC1CCN(C(=O)NCc2ccccc2)CC1)c1cccc(F)c1	inactive: 5.86%
CCn1c(C)nc2cc(C(=O)N/N=C/c3cccc(OC)c3O)ccc21	inactive: 4.71%
COC(=O)c1cc(OC)c(OC)c(OC)c1[N+](=O)[O-]	inactive: 20.3%
N#Cc1ccc(Cn2c(-c3ccc(F)cc3)noc2=O)cc1	inactive: 15.1%
COc1ccc(N(CC(=O)NC2CCS(=O)(=O)C2)S(=O)(=O)c2cc(C)ccc2C)cc1 (centres undefined)	inactive: 11.8%
COc1ccc(NC(=O)c2ccco2)cc1S(=O)(=O)N1CCOCC1	inactive: -0.381%
CC(C)(C)c1[nH]nc2c1C(c1ccncc1)C(C#N)=C(N)O2 (centres undefined)	inactive: 25%
COc1cccc(-c2ccc(NC(=O)C3CCCN(Cc4cnc(C)s4)C3)cc2)c1 (centres undefined)	inactive: 0.987%
O=C(CN1CCCCCC1)Nc1ccc(Cl)cc1F	inactive: -15.4%
CCC1CCCCN1CC(O)COCc1cccc(OC)c1 (centres undefined)	inactive: -1.43%
COc1cc(NC(=O)Nc2nc(C(N)Cc3ccc(C(F)(F)F)cc3)cs2)cc(OC)c1OC (centres undefined)	inactive: 3.74%
O=C(O)CCn1c(=O)c2cccn2c2cccnc21	inactive: 4.91%
O=C1NC2=C(C(=O)OC2)C(c2ccc(OC(F)(F)F)cc2)N1 (centres undefined)	inactive: 5.95%
O=C(Cn1cnc2ccccc2c1=O)c1ccc(Br)cc1	inactive: -35.2%
COc1cccc(NC(=O)Nc2ccc3nc(C)c(C)nc3c2)c1	inactive: 9.01%
N#Cc1ccccc1Cn1c(=O)n(-c2cccc(C(F)(F)F)c2)c(=O)c2sccc21	inactive: 13.9%
O=C(C1CCCN(CCCc2ccccc2)C1)N1CCCCCC1 (centres undefined)	inactive: -15.5%
O=C(NCc1ccccc1Cl)C1CCCN(C(=O)Nc2ccc(F)cc2)C1 (centres undefined)	inactive: 8.42%
Cc1ccc(CNC(=O)COC(=O)C2CCC2)cc1	inactive: 5.79%
Cc1sc(NC(=O)C2C3CCC(O3)C2C(=O)O)nc1-c1ccc(CC(C)C)cc1 (centres undefined)	inactive: 35.9%
Cc1cccc(-n2ncc3c(=O)[nH]c(SCC(=O)Nc4cc(C)on4)nc32)c1	inactive: 11%
O=C1CC(c2ccc(Cl)cc2)CC(O)=C1C=NCCO (centres undefined)	inactive: 13.9%
COc1ccc(OCCC(=O)OCC(=O)NC2CCCCC2)cc1	inactive: 4.91%

Structure (SMILES)	growth rescue (activation)
Cc1ccc2nc(SCC(=O)NNC(=O)c3ccccc3)[nH]c2c1	inactive: -0.56%
O=C(NCCCO)c1ccc2nc(-c3ccco3)c(-c3ccco3)nc2c1	inactive: -1.34%
CC1CCCC(NC(=O)CN2C(=O)NC(C)(c3cc(F)ccc3F)C2=O)C1C (centres undefined)	inactive: 6.71%
Cc1nc(SCC(=O)NC(=O)NCCC(C)C)c2c(-c3cccs3)csc2n1	inactive: -14.2%
COc1ccc(C(=O)N/N=C(\C)CC(=O)N2CCN(C=O)CC2)cc1	inactive: -1.18%
Cc1cccc(N(CC(=O)NCc2ccco2)C(=O)CNS(=O)(=O)c2ccc(F)cc2)c1	inactive: 14.2%
O=C1c2ccccc2C(=O)N1CCCn1ccnc1	inactive: -4.93%
Cc1cccc(CC(=O)Nc2ccc(C(=O)N3CCOCC3)cc2)c1	inactive: 9.13%
Cc1ccc(-c2nc(C=Nc3ccc(O)cc3)c(O)o2)cc1	inactive: -0.461%
CC(C)NC(=O)COC(=O)c1ccccc1CSC1=NCCS1	inactive: 15.5%
Cc1cc(C)cc(C(O)c2ncc(-c3cccc(C(F)(F)F)c3)[nH]2)c1 (centres undefined)	inactive: 9.47%
C=Cc1ccc(Cn2nc(-c3ccc(C)cc3)ccc2=O)cc1	inactive: 22.1%
O=c1[nH]c(=S)[nH]cc1S(=O)(=O)c1cccc(Cl)c1	inactive: -0.986%
O=C(CSCc1ccc(F)cc1)Nc1ccccc1C(=O)N1CCOCC1	inactive: 18.2%
Cc1nc(NC(=O)c2cc3ccccc3o2)ccc1Br	inactive: -1.35%
CCOC(=O)C1CCN(Cc2oc(CO)cc(=O)c2O)CC1	inactive: 12.6%
Cc1cc(C)cc(NC(=S)N(Cc2ccc(Cl)cc2)Cc2ccc(C(=O)O)cc2)c1	inactive: -26.1%
CCNC(=O)NCCNC(=O)c1cc(OCC(F)(F)F)ccc1OCC(F)(F)F	inactive: 1.32%
CCOC(=O)CCCNC(=O)COC(=O)[C@@H]1CCCN1S(=O)(=O)c1ccc(Cl)cc1	inactive: 1.26%
Cc1ccc(S(=O)(=O)N(C)CC(=O)NCCCn2ccnc2)cc1	inactive: -17.1%
COc1ccc(NC(=O)COc2ccc(C)cc2)c([N+](=O)[O-])c1	inactive: 1.09%
Cc1ccc(C(=O)NCCCNC(=O)c2ccc(Cl)cc2)cn1	inactive: -50.5%
CCC(=O)NC(c1ccccc1Cl)c1c(O)ccc2ccccc12 (centres undefined)	inactive: -5.07%
Cc1cc(=O)n2nc(N3CCCC(C(=O)NCCC4=CCCCC4)C3)sc2n1 (centres undefined)	inactive: 23.4%
COCCN1CCN(C(=O)c2cc(COc3ccc(F)c(F)c3)on2)CC1	inactive: 16.6%
Cc1ccc(Nc2n[nH]c(C)c2[N+](=O)[O-])cc1C	inactive: 25.7%
CNC(=O)NCCN1CCCC1=O	inactive: -28%
